From PubChem BioAssay AID488969 (Vanderbilt High Throughput Screening Facility, 2010)
Whole data set: some 110,000 compounds, median “z-score” near -0.1, cut for the highest 2% near 2. Some of the results follow.

Each compound was assayed against Metabotropic glutamate receptor 8 (Rattus norvegicus) (UniProt P70579) (assay: mGluR8 Gi/Go-coupled signaling modulation – cell-based, rat, thallium flux, HTS, primary screen (AID 488969)). Settings: HEK293 rat mGluR8, GIRK (G protein-gated inwardly rectifying potassium channel) thallium flux, FluoZin2; at 10 µM; stronger effect = higher value; submaximal glutamate (EC20) added with thallium.
Sequence of UniProt P70579 (P70579 whole entry, looked up): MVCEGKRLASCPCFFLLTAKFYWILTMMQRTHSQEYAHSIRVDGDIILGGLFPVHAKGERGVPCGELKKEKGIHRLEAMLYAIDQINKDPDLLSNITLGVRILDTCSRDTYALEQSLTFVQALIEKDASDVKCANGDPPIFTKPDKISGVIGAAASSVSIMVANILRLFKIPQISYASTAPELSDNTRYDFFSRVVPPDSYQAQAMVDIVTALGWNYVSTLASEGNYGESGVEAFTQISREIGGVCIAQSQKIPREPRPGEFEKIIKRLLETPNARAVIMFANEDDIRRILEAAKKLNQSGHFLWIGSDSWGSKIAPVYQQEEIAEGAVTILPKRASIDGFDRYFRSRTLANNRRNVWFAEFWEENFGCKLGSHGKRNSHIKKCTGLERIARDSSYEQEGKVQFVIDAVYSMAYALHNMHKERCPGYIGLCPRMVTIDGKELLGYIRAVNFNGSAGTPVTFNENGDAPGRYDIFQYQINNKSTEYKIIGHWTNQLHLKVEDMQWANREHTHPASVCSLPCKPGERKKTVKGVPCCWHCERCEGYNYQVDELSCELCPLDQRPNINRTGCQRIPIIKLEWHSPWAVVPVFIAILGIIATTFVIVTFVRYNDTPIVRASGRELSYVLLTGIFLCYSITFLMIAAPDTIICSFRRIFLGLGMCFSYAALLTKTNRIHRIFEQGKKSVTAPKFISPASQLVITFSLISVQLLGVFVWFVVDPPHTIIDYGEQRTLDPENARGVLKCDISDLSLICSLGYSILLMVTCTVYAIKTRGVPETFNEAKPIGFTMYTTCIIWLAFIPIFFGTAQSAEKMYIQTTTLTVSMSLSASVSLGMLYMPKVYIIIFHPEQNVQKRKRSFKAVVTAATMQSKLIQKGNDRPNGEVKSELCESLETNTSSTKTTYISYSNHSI
Work on Cn1c(=NC(=O)C2CC2)sc2cc(F)cc(F)c21 yielded a z-score of -0.108. O=c1oc2ccccc2cc1-c1csc(Cc2nc(-c3ccc(Br)cc3)cs2)n1 was tested, and the z-score was 1.17. Compound CCC(=O)c1ccc(CCCCCC(=O)O)s1 has a z-score of -0.194. For Cc1ccc(/C=C/C(=O)C2C(=O)c3ccccc3C2=O)cc1, the z-score was 0.871. With COc1ccc(/C=N/Nc2nc(C)c([N+](=O)[O-])c(N(C)c3ccccc3)n2)cc1OC the z-score was -0.369. COc1ccccc1NC(=S)NC(=O)CCCOc1ccc(Cl)cc1Cl showed a z-score of -0.0968. Compound Cc1ccc(/C=N/NC(=O)c2cccs2)cc1[N+](=O)[O-] has a z-score of -0.152. CCn1c(SCc2cccc(C)c2)nnc1-c1ccc(C)cc1 was tested, and the z-score was -0.617. With Cc1ccccc1-n1c(SCC(=O)N/N=C/c2c(C)nn(-c3ccccc3)c2C)nc2ccccc2c1=O the z-score was -0.599. With O=C(CCc1nc(-c2ccccc2F)no1)NC1CCCCCC1 the z-score was -0.464. Compound CCOC(=O)C1=C(C)NC(C)=C(C(=O)OCC)C1C(=O)OCC(=O)N1c2ccccc2CC1C (stereo not drawn) has a z-score of 2.55. CC(C)OC(=O)CSc1nnc(Cc2ccccc2)n1CC1CCCO1 (stereo not drawn) showed a z-score of 0.0484. For O=C(CP(=O)(c1ccccc1)c1ccccc1)Nn1cnnc1, the z-score was 0.808. CCOc1ccc(/C=N/OCC(=O)NCc2cccs2)cc1 showed a z-score of -1.71. In the case of CCOc1ccc(-n2c(SCC(=O)NC(C)CC)nc3n[nH]c(C)c3c2=N)cc1 (stereo not drawn), the z-score is reported as -0.45. Compound O=C(COc1ncnc2c(Cl)cc(Cl)cc12)N1CCCCC1 has a z-score of -0.979. Compound O=C(Nc1sccc1C(=O)N1CCOCC1)c1cccnc1 has a z-score of 0.24. Cc1ccc2c(c1)NC(C(C)(C)C)CO2 (stereo not drawn) gave a z-score of -0.154. For O=C(Nc1cc(Oc2ccccc2)cc([N+](=O)[O-])c1)C12CC3CC(C1)CC(n1cnc(Cl)n1)(C3)C2, the z-score was 0.357. In the case of CCN(CC)C(=O)CSc1nnc(-c2ccccc2)n1-c1ccccc1, the z-score is reported as -1.03. CCOC(=O)N1CCN(C(=O)c2ccc3c(=O)n4c(nc3c2)CCCCC4)CC1 was tested, and the z-score was -0.386. CC(O)C(NS(=O)(=O)c1ccc(Cl)cc1)C(=O)OCc1nnc(-c2ccccc2)o1 (stereo not drawn) gave a z-score of 0.126. With O=C(NCC1CCCO1)/C(=C\c1ccc(Cl)cc1)NC(=O)c1ccccc1 (stereo not drawn) the z-score was -0.12. Work on CCCCCCc1cc2cc(-c3nnc(-c4cccc(OC)c4)o3)c(=O)oc2cc1O yielded a z-score of -0.968. Work on COC(=O)[C@@H]1C2CCC(C(=O)Nc3ccccc3)(CC2)[C@@H]1C(=O)OC yielded a z-score of -0.52. Cc1cc(C(=O)CSc2nnnn2-c2ccccc2)c(C)n1-c1ccc2c(c1)OCO2 was tested, and the z-score was 0.453. With CCOC(=O)c1cnc(-n2nc(C)cc2C)nc1Nc1cccc(C(=O)O)c1 the z-score was 0.146. For CC(=O)c1c(C)n(-c2ccccc2)c2ccc(O)cc12, the z-score was 0.0908. For O=[N+]([O-])c1ccc(Cl)c(/C=N/Nc2nc(N3CCOCC3)nc(N3CCOCC3)n2)c1, the z-score was -0.357. With CCOc1ccc(/C=N/NC(=O)Cc2csc(Nc3cccc(C(F)(F)F)c3)n2)cc1 the z-score was -0.15. With Cc1no[n+]([O-])c1COc1cccc(/C=C2\N=C(c3ccccc3)OC2=O)c1 the z-score was -0.238. Compound COc1ccc2nc(NC(=O)c3ccc(Br)s3)sc2c1 has a z-score of -0.513. CCOC(=O)CNC(=O)CSc1nnc(-c2ccccc2OC)n1CC showed a z-score of -0.377. c1cncc(-c2nc(NCC3COc4ccccc4O3)c3ccccc3n2)c1 (stereo not drawn) gave a z-score of -0.22. Work on O=C(O)CSc1nnc(C2CC2)n1-c1ccccc1 yielded a z-score of 0.28. Compound Cc1ccc(NC(=O)CC2SC(=O)N(c3ccccc3)C2=O)cc1 (stereo not drawn) has a z-score of -0.688. O=C(NNc1ccc(C(F)(F)F)cc1[N+](=O)[O-])c1ccc(NS(=O)(=O)c2ccc(F)cc2)cc1 was tested, and the z-score was -0.165. In the case of CCc1ccc(C(=O)CN(C#N)c2nc(C)cc(C)n2)cc1, the z-score is reported as -0.057. With Cc1ccc(/C=C2/NC(=O)N(Cc3ccccc3)C2=O)o1 the z-score was -0.0755. Work on Cc1cccc(N(CC(=O)NC2CCCCC2)C(=O)c2ccc(C)s2)c1 yielded a z-score of -0.201. Work on Cc1cccc(OCc2nnc(SCC(=O)N3CCN(c4ccccc4)CC3)o2)c1C yielded a z-score of 0.206. For O=C(NC(Cc1ccccc1)C(=O)O)/C(=C/c1ccc(F)cc1)NC(=O)c1ccccc1 (stereo not drawn), the z-score was -0.292. O=C(NCCO)c1cccc(Cl)c1 was tested, and the z-score was 0.181. For Cc1ccccc1C(=O)N1CCN(c2ccc([N+](=O)[O-])c(NCc3ccco3)c2)CC1, the z-score was -1.31. In the case of CCCS(=O)(=O)N1CCCC(C(=O)N2CCC(Cc3ccccc3)CC2)C1 (stereo not drawn), the z-score is reported as 0.446. O=C(c1cc(-c2ccc3c(c2)OCO3)on1)N1CCN(c2ccccc2)CC1 was tested, and the z-score was 0.0554. In the case of CCc1ccc(OCC(=O)Nc2cc(S(=O)(=O)CC)ccc2O)cc1, the z-score is reported as -0.0727. Compound Cc1ccc(-n2c(C)cc3c2CCCC3=O)cc1 has a z-score of 0.096. CS(=O)(=O)N1CCN(C(=O)c2ccccc2F)CC1 gave a z-score of -0.0414. In the case of CN1CC2=Cc3ccccc3OC23Oc2ccccc2C=C3C1, the z-score is reported as 2.01. With CCOCCCNC(=S)NCCNc1nc2c(C)cccc2cc1C#N the z-score was -0.7. For Cc1ccsc1/C=C1/SC(N2CCOCC2)=NC1=O, the z-score was 0.0375. Compound COc1ccc(CC(NC(C)=O)C(=O)NC2CCN(C(=O)Nc3ccc(C#N)cc3)CC2)cc1OC (stereo not drawn) has a z-score of -0.0576.
